Test results as given in PubChem BioAssay AID463173 (ICCB-Longwood Screening Facility, Harvard Medical School, 2010).
In all, about 52,000 compounds went through this assay and about 4,300 (8.3%) were called active. Cut-off read from the data, not from the text of the source: active = survival mostly below about 52% (no sharp cut-off); inactive = mostly above about 56%. This is one part of the list.

tested on: DeltatarO mutant; test: growth inhibition of S. aureus wild type versus tarO mutant, primary screen, teichoic acid synthesis inhibitors, RN4220, OD600 (AID 463173); conditions: OD600, 18 h, stronger effect = lower value, screened at 18.75 µg/mL (by protocol)

Row | SMILES | survival
1 | CC(=O)Nc1ccc(C(=O)N2CCOCC2)cc1 | inactive: 85%
2 | O=C(COCc1cc(-c2ccc(F)cc2)on1)Nc1cc(Cl)cc(Cl)c1 | inactive: 144%
3 | Cc1ccc(-n2ncc3c(NCCc4ccccc4)ncnc32)cc1Cl | inactive: 65%
4 | COc1ccc(CCNC(=O)c2cc(-c3ccc(C)cc3)nc3n[nH]c(-c4ccc(F)cc4)c23)cc1OC | inactive: 107%
5 | O=C(NCc1ccccc1)C1CCCN1S(=O)(=O)c1ccc(Cl)cc1 (stereo not drawn) | inactive: 93%
6 | O=C1NN(c2ccccc2)C(=O)/C1=C\c1ccccc1 | inactive: 99%
7 | O=C(CCSCc1cccc(F)c1)NCCc1ccccc1 | inactive: 107%
8 | CCCCCOc1ccc(C(=O)CCN2CCOCC2)cc1 | inactive: 90%
9 | CCCN1CCN(CCCNC(=O)c2cc3c(=O)[nH]c4ccccc4c3s2)CC1 | inactive: 79%
10 | COc1ccc(NC(=O)CNC(=O)Cn2ccc3ccccc3c2=O)c(OC)c1 | inactive: 67%
11 | Nc1c(C(=O)N2CCOCC2)sc2nc3c(cc12)CCCC3 | inactive: 89%
12 | CCc1ccc(NC(=O)C2CCN(c3ccc(Sc4ccc(C)cc4)nn3)CC2)cc1 | inactive: 93%
13 | C=CCOc1cccc(CNn2nnnc2N)c1 | inactive: 97%
14 | CCOc1cc(CNC(=O)c2cc(-c3ccc(Cl)s3)nc3ccccc23)ccc1OC | inactive: 84%
15 | CCCC(=O)C1=C(N(C)c2ccccc2)CC(C)(C)CC1=O | inactive: 75%
16 | COc1ccc(CCNC(=O)Cn2c(=O)cc(C(F)(F)F)c3c(C)nn(C)c32)c(OC)c1 | inactive: 80%
17 | CCc1ccc(C2=CC(c3cccc(OC)c3OC)n3c(nc4ccccc43)N2)cc1 (stereo not drawn) | inactive: 61%
18 | Cc1ccc(N2CCN(S(=O)(=O)c3nnc(NC(=O)c4cccc(F)c4)s3)CC2)cc1 | inactive: 57%
19 | Cc1ccc(CNC(=O)c2cnc(N3CCCC3)nc2C)cc1 | inactive: 91%
20 | CCc1ccccc1NC(=O)c1nnn(CC(=O)Nc2c(C)cc(C)cc2C)c1N | inactive: 85%
21 | N#Cc1ccccc1NC(=O)CSC1=NCCS1 | inactive: 99%
22 | Cc1cc(C)c2c(NC(=O)c3ccccc3Cl)c(C(=O)Nc3ccc(C)c(C)c3)sc2n1 | inactive: 47%
23 | CN(C(=O)CSc1nc2ccc(NC(=O)c3ccco3)cc2s1)c1ccccc1 | inactive: 59%
24 | COc1cccc(OC(=O)N2CCOCC2)c1 | inactive: 103%

Row | SMILES | survival
25 | CC1CCC2C(C1)Nc1c(C(=O)O)cccc1C2(C)C (stereo not drawn) | active: 40%
26 | O=C(CSC1=NCCS1)OCN1C(=O)c2ccccc2C1=O | inactive: 103%
27 | CCOC(=O)c1cc(S(=O)(=O)N2CCN(c3cccc(C)c3)C(C)C2)[nH]n1 (stereo not drawn) | inactive: 92%
28 | Cc1ccc2nc3sc(C(=O)Nc4ccc(F)cc4)cc3cc2c1 | active: 37%
29 | COC(=O)c1ccc(NC(=O)C(C)N2Cc3ccccc3C2=O)cc1 (stereo not drawn) | inactive: 66%
30 | COc1ccc(N2CCN(C(=O)c3c(C)oc4ncn(CC(C)C)c(=O)c34)CC2)cc1 | inactive: 84%
31 | COc1cc(CNCCSc2nnnn2C)ccc1OCc1ccccc1 | inactive: 73%
32 | N=c1n(CCN2CCCCC2)c2ccccc2n1CC(O)c1ccc2c(c1)OCO2 (stereo not drawn) | inactive: 83%
33 | CCCC(=O)Nc1ccc2nc(SCCOc3ccccc3)sc2c1 | inactive: 91%
34 | CCCN1Cc2cccc(C(=O)Nc3ccccc3F)c2C1=O | inactive: 94%
35 | Cc1cccc(NC(=O)C(=O)NCC(c2cccnc2)N2CCN(Cc3ccccc3)CC2)c1 (stereo not drawn) | inactive: 81%
36 | CCOc1ccc(NCc2cccn2-c2nnc(N3CCC(C(=O)NCCc4ccc(OCC)c(OCC)c4)CC3)s2)cc1 | inactive: 66%
37 | O=C(NC12CC3CC(CC(C3)C1)C2)c1ccco1 | inactive: 72%
38 | CCC(NC(=O)c1ccccc1)c1ccccc1 (stereo not drawn) | inactive: 90%
39 | COCCn1c(C)cc(O)c(C(c2ccc(OC)cc2)N2CCCCC2)c1=O (stereo not drawn) | inactive: 83%
40 | CC1CN(C(=O)Nc2ccc(C(=O)NCCc3ccc(Cl)cc3)cc2)c2ccccc2S1 (stereo not drawn) | inactive: 88%
41 | O=C(Cc1ccccc1)NN1C(=O)c2ccccc2C1=O | inactive: 92%
42 | COc1ccc2ncc3c(-c4ccccc4)nn(-c4ccc(C)c(C)c4)c3c2c1 | active: 18%
43 | COc1ccccc1NC(=O)CSc1ncc(CO)n1Cc1ccc(F)cc1 | inactive: 128%
44 | CC(C)c1cnc2c(c1SCC(=O)c1ccc(Cl)cc1)c(=O)n(C)c(=O)n2C | inactive: 90%
45 | Cc1ccccc1NC(=O)Cn1c(=O)n(Cc2ccco2)c(=O)c2ccc(C(=O)NC3CCCC3)cc21 | inactive: 77%
46 | Cc1cccc(N2CCN(C(=O)C3CCN(S(=O)(=O)Cc4ccccc4)CC3)CC2)c1C | inactive: 71%
47 | CC1CCN(C(=O)CSc2nc3ccccc3c(=O)[nH]2)CC1 | inactive: 92%
48 | Cc1cc(-c2ccccc2)nc2cc(C(=O)Nc3ccc(Cl)c(Cl)c3)nn12 | inactive: 52%

Row | SMILES | survival
49 | O=C(NCN1CCCCC1)Nc1cccc(Cl)c1 | inactive: 89%
50 | COc1ccc(CN(Cc2cc3cccc(C)c3n3nnnc23)C(=O)N2CCOCC2)cc1 | inactive: 96%
51 | COc1ccc(Cl)cc1NC(=O)c1c(NCc2cccnc2)sc2c1CCCC2 | inactive: 79%
52 | CC(C)(C)OC(=O)N1CCC(c2c(C(=O)NCCc3ccsc3)cnn2-c2ccc(F)cc2F)CC1 | inactive: 81%
53 | CCOC(=O)c1c(Nc2ccc(OCC)cc2)nnc(-c2ccccc2)c1-c1ccccc1 | active: -2%
54 | COc1ccc(Cn2nc3n(c2=O)-c2ccccc2OC3)cc1 | inactive: 67%
55 | C=CCn1c(COc2ccc(OC)cc2)n[nH]c1=S | inactive: 95%
56 | O=C(Nc1ccccc1)c1cc2c(-c3ccccc3)nn(-c3ccccc3)c2s1 | active: 44%
57 | CCCCNC(=O)C1(NC(=O)Nc2ccccc2)CCCCC1 | inactive: 74%
58 | CCOc1ccc(OC(=O)c2sc3ncn(Cc4cccc(F)c4)c(=O)c3c2C)cc1 | inactive: 79%
59 | O=C(CSc1c2c(nc3ccc(Cl)cc13)CCCC2)N1CCN(c2ccc(Cl)cc2)CC1 | active: 31%
60 | CSc1ccc(CCNS(=O)(=O)c2cc(-c3cc(C)no3)ccc2C)cc1 | inactive: 88%
61 | CCOC(=O)c1cnc2cc(Cl)c(OC)cc2c1Nc1ccc(Br)cc1C | inactive: 102%
62 | COc1ccccc1C(=O)NC1(C(F)(F)F)C(=O)NC(C)=C1C#N (stereo not drawn) | inactive: 69%
63 | COc1ccccc1N1CCN(C(=O)C2CCN(S(=O)(=O)c3cccs3)CC2)CC1 | inactive: 64%
64 | Cc1ccccc1NC(=O)Cn1nnc(C(=O)NCc2ccco2)c1N | inactive: 96%
65 | COc1cc(OC)c(NC(=O)c2nn(C)c3c2COc2ccccc2-3)cc1Cl | inactive: 104%
66 | CCN(CC)S(=O)(=O)c1ccc2c(c1)N(CC(=O)Nc1cccc(C(C)=O)c1)C(=O)CO2 | inactive: 84%
67 | O=C(Nc1ccc2nc[nH]c2c1)C1CCCCC1 | inactive: 102%
68 | O=C(COCc1cc(-c2ccc3c(c2)OCO3)on1)Nc1cccc(O)c1 | inactive: 99%
69 | CCC(=O)N1c2ccccc2CC1C(=O)NCCCN1CCN(c2ccc(F)cc2)CC1 (stereo not drawn) | inactive: 124%
70 | COc1ccc(Cl)cc1S(=O)(=O)Nc1ccc2c(c1)n(C)c(=O)n2C | inactive: 67%
71 | Cc1cccc(C(=O)n2nc(-c3ccco3)nc2NCc2ccccc2)c1 | inactive: 63%
72 | COc1ccc(OC)c(NC(=O)C(Cc2ccccc2)NS(=O)(=O)c2ccc3c(c2)CCC(=O)N3)c1 (stereo not drawn) | inactive: 85%

Row | SMILES | survival
73 | CCn1cc2nc(SCc3c(F)cccc3Cl)n(CCc3ccccc3)c(=O)c2n1 | active: 52%
74 | CNC(=O)C1CCC(Cn2c(=O)c3sccc3n(CC(=O)Nc3ccc(C)cc3C)c2=O)CC1 (stereo not drawn) | inactive: 87%
75 | Cc1cccc(NC(=O)CSc2nc(=O)n(CCN3CCOCC3)c3c2CCC3)c1 | inactive: 86%
76 | Cc1ccc(-n2ncc(C(=O)NCCN3CCc4ccccc4C3)c2C2CCN(C(=O)OC(C)(C)C)CC2)c(C)c1 | inactive: 64%
77 | O=C(CN1C(=O)COc2ccc(S(=O)(=O)NC3CCCC3)cc21)Nc1ccc(F)c(Cl)c1 | inactive: 124%
78 | Cc1ccc2nc(-c3ccc(N4CCOCC4)cc3)c(Nc3ccccc3C)n2c1 | inactive: 71%
79 | O=C(NCCn1cc(SCc2ccc(C(F)(F)F)cc2)c2ccccc21)c1cccs1 | inactive: 95%
80 | COc1ccc(-n2nc3c(N4CCCC(C(=O)NCc5ccccc5C)C4)nnc(C)c3c2C)cc1 (stereo not drawn) | inactive: 90%
81 | Cc1nnc(SCC(=O)NCc2cccc(F)c2)c2nn(-c3ccccc3)c(C)c12 | inactive: 67%
82 | N#CCOc1nc(OCC#N)nc(OCC#N)n1 | active: 1%
83 | CCCS(=O)(=O)NCCc1sc2nc(-c3ccc(Cl)cc3)nn2c1C | inactive: 70%
84 | NC(=O)C1CCN(C(=O)c2ccccc2NC(=O)c2nsc3ccccc23)CC1 | inactive: 126%
85 | CCOC(=O)c1c(NC(=O)c2cc(=O)c3c(C)cc(C)cc3o2)sc(C)c1C | inactive: 61%
86 | COc1cccc(NC(=O)CN2C(=O)COc3ccc(S(=O)(=O)N4CCOCC4)cc32)c1 | inactive: 81%
87 | CN(c1nnc(NC(=O)Nc2ccc(Br)cc2)s1)C1CCCCC1 | inactive: 62%
88 | COc1ccccc1CNc1ncnc2onc(-c3ccc(Cl)cc3)c12 | inactive: 88%
89 | Cc1[nH]c2ccccc2c1C1(O)C(=O)N(Cc2ccccc2)c2ccc(Br)cc21 (stereo not drawn) | active: 3%
90 | Cc1ccc(NC(=O)Nc2csc3c2CCCC3)c(C)c1 | inactive: 63%
91 | COC(=O)COc1ccc(S(=O)(=O)N2CCN(c3ccccc3F)CC2)cc1Cl | inactive: 89%
92 | CCc1ccc(NC(=O)c2sc3nc(-c4ccccc4)cn3c2C)cc1 | inactive: 107%
93 | CCN1CCN(C(c2cccc(OC)c2)c2c(O)cc(C)n(Cc3ccco3)c2=O)CC1 (stereo not drawn) | inactive: 120%
